Assay results from the antibiotic and cytotoxicity screens of Wong et al. (2023).
The other results are listed elsewhere or left out.

Key:
HSkMC = human skeletal muscle cells; experiment: cytotoxicity call (relative viability < 0.9); conditions: 10 µM
HepG2 = experiment: cytotoxicity call (relative viability < 0.9); conditions: 10 µM
S. aureus RN4220 = experiment: growth inhibition call (relative growth <= 0.2); conditions: 50 µM

| Compound | cytotoxicity call (HSkMC) | cytotoxicity call (HepG2) | growth inhibition call (S. aureus RN4220) |
| --- | --- | --- | --- |
| C[C@@H]1O[C@@H](O[C@H]2[C@H](O[C@H]3[C@H](O)[C@@H](O[C@@H]4O[C@H](CO)[C@@H](O)[C@H](O)[C@H]4O)[C@H](O[C@H]4CC[C@]5(C)[C@H]6CC[C@]78OC[C@@]9(CCC(C)(C)C[C@@H]97)[C@H](O)C[C@@]8(C)[C@]6(C)CC[C@H]5C4(C)C)O[C@@H]3C(=O)O)O[C@H](CO)[C@H](O)[C@@H]2O)[C@H](O)[C@H](O)[C@H]1O | active | active | inactive |
| C[C@@H]1CN([C@H](C)CO)C(=O)c2cc(NC(=O)NC3CCCCC3)ccc2O[C@@H](C)CCCCO[C@@H]1CN(C)Cc1ccncc1 | inactive | inactive | inactive |
| C[C@H](CO)N1C[C@H](C)[C@H](CN(C)C(=O)Nc2ccc3c(c2)OCO3)Oc2c(NC(=O)c3ccc(-c4nccs4)cc3)cccc2C1=O | inactive | inactive | inactive |
| Cc1ccc(S(=O)(=O)Nc2ccc3c(c2)C(=O)N([C@H](C)CO)C[C@H](C)[C@@H](CN(C)Cc2ccncc2)OCCCC[C@H](C)O3)cc1 | inactive | inactive | inactive |
| C[C@H](CO)N1C[C@H](C)[C@H](CN(C)C(=O)Nc2ccc(C(F)(F)F)cc2)Oc2ccc(NC(=O)NC3CCCCC3)cc2C1=O | inactive | active | inactive |
| Cc1noc(C)c1NC(=O)Nc1ccc2c(c1)C(=O)N([C@@H](C)CO)C[C@@H](C)[C@@H](CN(C)C(=O)NC1CCCCC1)OCCCC[C@H](C)O2 | inactive | inactive | inactive |
| CC1(C)C[C@@](C)(c2ccccc2)c2cc(SC#N)ccc2N1 | inactive | inactive | inactive |
| COc1ccc(S(=O)(=O)N(C)C[C@@H]2Oc3ccc(NC(=O)CCN4CCOCC4)cc3C(=O)N([C@H](C)CO)C[C@@H]2C)cc1 | inactive | inactive | inactive |
| NC(=O)NCC#Cc1ccc2c(c1)[C@]1(C(=O)N2)[C@H](c2ccccc2OCCO)N2[C@H](c3ccccc3)[C@H](c3ccccc3)OC(=O)[C@H]2[C@@H]1C(=O)N1CCN(c2ncccn2)CC1 | inactive | inactive | inactive |
